Test results as given in patent US20210156867A1 (YEDA RESEARCH AND DEVELOPMENT, published 2021).

Molecular target: T1, recombinant human B-cell lymphoma protein 2 alpha His-Tag (Bcl-2) (human, UniProt P10415)
T1 construct: In the assay it was in complex with the Ni-NTA sensor compound 5; also called His-Bcl-2; not shown: His-tag
Experiment: fluorescence displacement assay: emission of the His-Bcl-2-compound 5 sensor complex (200 nM) after adding 800 nM protein

T1 sequence (P10415 1-211 limits assumed): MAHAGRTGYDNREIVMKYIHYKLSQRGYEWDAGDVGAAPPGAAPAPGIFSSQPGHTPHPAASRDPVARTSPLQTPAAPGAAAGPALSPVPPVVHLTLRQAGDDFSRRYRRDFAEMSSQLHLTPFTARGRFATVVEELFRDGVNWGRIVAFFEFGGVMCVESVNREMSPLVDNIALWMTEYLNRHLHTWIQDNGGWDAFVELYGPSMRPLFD

binding result: no binding (tested: 800 nM)
B1: Avidin (other, chicken (hen), UniProt P02701 25-152, looked up)
avidin subunit: ARKCSLTGKWTNDLGSNMTIGAVNSRGEFTGTYITAVTATSNEIKESPLHGTQNTINKRTQPTFGFTVNWKFSESTTVFTGQCFIDRNGKEVLKTMWLLRSSVNDIGDDWKATRVGINIFTRLRTQKE
notes: from egg white; also called avidin from hen's egg white
